{"source": "the supplement of paper PMC8728848", "binders": {"B1": {"name": "Gal 2 (Canis lupus) (protein)", "chain": "MSGKFEVMNMDMKLGGTLKIKGKIAGDADGFVINLGQGSDKLNLHFNPRFHESVIVCNSRNWGQEQRDKHMCFSPGSEVKFTVTFENDGFKVKLPDGHQLTFPNRLGHSHLSYLGVQGGLKVSSFKIE"}}, "test_in_all_cases": "glycan array binding signal (z-score within array); higher = stronger binding", "details_in_all_cases": "glycan notation: IUPAC condensed, linker removed", "key": {"[1]": {"molecular_target": "Gal(b1-4)GlcNAc(b1-6)[Gal(b1-3)]GalNAc", "in_short": "(§1)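 Columns mapping to the same glycan were averaged after glycan names were converted to IUPAC-condensed notation. The data come from 3228 arrays in the Consortium for Functional Glycomics database, limited to those with an available protein sequence. Binding is reported as a within-array Z-score averaged across arrays of one protein sequence and across linkers.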"}, "Gal(b1-6)Gal": {"molecular_target": "Gal(b1-6)Gal", "in_short": "as §1"}, "Gal3S(b1-3)GalNAc": {"molecular_target": "Gal3S(b1-3)GalNAc", "in_short": "as §1"}, "Gal3S(b1-3)GlcNAc": {"molecular_target": "Gal3S(b1-3)GlcNAc", "in_short": "as §1"}, "[2]": {"molecular_target": "Gal3S(b1-3)[Fuc(a1-4)]GlcNAc", "in_short": "as §1"}, "Gal3S(b1-4)Glc": {"molecular_target": "Gal3S(b1-4)Glc", "in_short": "as §1"}, "Gal3S(b1-4)Glc6S": {"molecular_target": "Gal3S(b1-4)Glc6S", "in_short": "as §1"}, "Gal3S(b1-4)GlcNAc": {"molecular_target": "Gal3S(b1-4)GlcNAc", "in_short": "as §1"}, "Gal3S(b1-4)GlcNAc6S": {"molecular_target": "Gal3S(b1-4)GlcNAc6S", "in_short": "as §1"}, "[3]": {"molecular_target": "Gal3S(b1-4)[Fuc(a1-3)]Glc", "in_short": "as §1"}, "[4]": {"molecular_target": "Gal3S(b1-4)[Fuc(a1-3)]Glc6S", "in_short": "as §1"}, "Gal3S4S(b1-4)GlcNAc": {"molecular_target": "Gal3S4S(b1-4)GlcNAc", "in_short": "as §1"}, "Gal3S6S(b1-4)GlcNAc": {"molecular_target": "Gal3S6S(b1-4)GlcNAc", "in_short": "as §1"}, "Gal3S6S(b1-4)GlcNAc6S": {"molecular_target": "Gal3S6S(b1-4)GlcNAc6S", "in_short": "as §1"}, "Gal4S(b1-4)GlcNAc": {"molecular_target": "Gal4S(b1-4)GlcNAc", "in_short": "as §1"}, "Gal4S6S(b1-4)GlcNAc": {"molecular_target": "Gal4S6S(b1-4)GlcNAc", "in_short": "as §1"}, "Gal6S(b1-3)GlcNAc": {"molecular_target": "Gal6S(b1-3)GlcNAc", "in_short": "as §1"}, "Gal6S(b1-3)GlcNAc6S": {"molecular_target": "Gal6S(b1-3)GlcNAc6S", "in_short": "as §1"}, "Gal6S(b1-4)Glc": {"molecular_target": "Gal6S(b1-4)Glc", "in_short": "as §1"}, "Gal6S(b1-4)Glc6S": {"molecular_target": "Gal6S(b1-4)Glc6S", "in_short": "as §1"}, "Gal6S(b1-4)GlcNAc": {"molecular_target": "Gal6S(b1-4)GlcNAc", "in_short": "as §1"}, "Gal6S(b1-4)GlcNAc6S": {"molecular_target": "Gal6S(b1-4)GlcNAc6S", "in_short": "as §1"}, "GalNAc(a1-3)Gal": {"molecular_target": "GalNAc(a1-3)Gal", "in_short": "as §1"}, "GalNAc(a1-3)GalNAc": {"molecular_target": "GalNAc(a1-3)GalNAc", "in_short": "as §1"}, "[5]": {"molecular_target": "GalNAc(a1-3)GalNAc(a1-3)Gal(a1-4)Gal(b1-4)GlcNAc", "in_short": "as §1"}, "[6]": {"molecular_target": "GalNAc(a1-3)GalNAc(b1-3)Gal(a1-4)Gal(b1-4)Glc", "in_short": "as §1"}, "GalNAc(b1-3)Gal": {"molecular_target": "GalNAc(b1-3)Gal", "in_short": "as §1"}, "[7]": {"molecular_target": "GalNAc(b1-3)Gal(a1-4)Gal(b1-4)GlcNAc", "in_short": "as §1"}, "[8]": {"molecular_target": "GalNAc(b1-3)Gal(a1-4)Gal(b1-4)GlcNAc(b1-3)Gal(b1-4)Glc", "in_short": "as §1"}, "[9]": {"molecular_target": "GalNAc(b1-3)Gal(a1-6)Gal(b1-4)Glc", "in_short": "as §1"}, "GalNAc(b1-3)GalNAc": {"molecular_target": "GalNAc(b1-3)GalNAc", "in_short": "as §1"}, "GalNAc(b1-4)GlcNAc": {"molecular_target": "GalNAc(b1-4)GlcNAc", "in_short": "as §1"}, "[10]": {"molecular_target": "GalNAc(b1-4)GlcNAc(b1-2)Man(a1-3)[GalNAc(b1-4)GlcNAc(b1-2)Man(a1-6)]Man(b1-4)GlcNAc(b1-4)GlcNAc", "in_short": "as §1"}, "GalNAc(b1-6)GalNAc": {"molecular_target": "GalNAc(b1-6)GalNAc", "in_short": "as §1"}, "Glc(a1-4)Glc": {"molecular_target": "Glc(a1-4)Glc", "in_short": "as §1"}, "Glc(a1-6)Glc(a1-6)Glc": {"molecular_target": "Glc(a1-6)Glc(a1-6)Glc", "in_short": "as §1"}, "Glc(b1-4)Glc": {"molecular_target": "Glc(b1-4)Glc", "in_short": "as §1"}, "Glc(b1-6)Glc": {"molecular_target": "Glc(b1-6)Glc", "in_short": "as §1"}, "GlcA(b1-3)Gal": {"molecular_target": "GlcA(b1-3)Gal", "in_short": "as §1"}, "GlcA(b1-3)GlcNAc": {"molecular_target": "GlcA(b1-3)GlcNAc", "in_short": "as §1"}, "GlcA(b1-6)Gal": {"molecular_target": "GlcA(b1-6)Gal", "in_short": "as §1"}, "[11]": {"molecular_target": "GlcNAc(a1-3)Gal(b1-4)GlcNAc", "in_short": "as §1"}, "[12]": {"molecular_target": "GlcNAc(a1-4)Gal(b1-3)GlcNAc", "in_short": "as §1"}, "[13]": {"molecular_target": "GlcNAc(a1-4)Gal(b1-4)GalNAc", "in_short": "as §1"}, "[14]": {"molecular_target": "GlcNAc(a1-4)Gal(b1-4)GlcNAc", "in_short": "as §1"}}, "note": "The other results are listed elsewhere or left out."}
{"binder": "B1", "values": [{"measurement": "glycan array binding signal (z-score)", "setting": "[1]", "result": -0.276}, {"measurement": "glycan array binding signal (z-score)", "setting": "Gal(b1-6)Gal", "result": 0.051}, {"measurement": "glycan array binding signal (z-score)", "setting": "Gal3S(b1-3)GalNAc", "result": -0.317}, {"measurement": "glycan array binding signal (z-score)", "setting": "Gal3S(b1-3)GlcNAc", "result": 0.189}, {"measurement": "glycan array binding signal (z-score)", "setting": "[2]", "result": 0.196}, {"measurement": "glycan array binding signal (z-score)", "setting": "Gal3S(b1-4)Glc", "result": 0.152}, {"measurement": "glycan array binding signal (z-score)", "setting": "Gal3S(b1-4)Glc6S", "result": -0.078}, {"measurement": "glycan array binding signal (z-score)", "setting": "Gal3S(b1-4)GlcNAc", "result": -0.284}, {"measurement": "glycan array binding signal (z-score)", "setting": "Gal3S(b1-4)GlcNAc6S", "result": -0.171}, {"measurement": "glycan array binding signal (z-score)", "setting": "[3]", "result": -0.342}, {"measurement": "glycan array binding signal (z-score)", "setting": "[4]", "result": -0.079}, {"measurement": "glycan array binding signal (z-score)", "setting": "Gal3S4S(b1-4)GlcNAc", "result": -0.007}, {"measurement": "glycan array binding signal (z-score)", "setting": "Gal3S6S(b1-4)GlcNAc", "result": 0.097}, {"measurement": "glycan array binding signal (z-score)", "setting": "Gal3S6S(b1-4)GlcNAc6S", "result": -0.034}, {"measurement": "glycan array binding signal (z-score)", "setting": "Gal4S(b1-4)GlcNAc", "result": 1.7}, {"measurement": "glycan array binding signal (z-score)", "setting": "Gal4S6S(b1-4)GlcNAc", "result": -0.154}, {"measurement": "glycan array binding signal (z-score)", "setting": "Gal6S(b1-3)GlcNAc", "result": -0.457}, {"measurement": "glycan array binding signal (z-score)", "setting": "Gal6S(b1-3)GlcNAc6S", "result": 0.025}, {"measurement": "glycan array binding signal (z-score)", "setting": "Gal6S(b1-4)Glc", "result": -0.068}, {"measurement": "glycan array binding signal (z-score)", "setting": "Gal6S(b1-4)Glc6S", "result": -0.178}, {"measurement": "glycan array binding signal (z-score)", "setting": "Gal6S(b1-4)GlcNAc", "result": 0.085}, {"measurement": "glycan array binding signal (z-score)", "setting": "Gal6S(b1-4)GlcNAc6S", "result": -0.207}, {"measurement": "glycan array binding signal (z-score)", "setting": "GalNAc(a1-3)Gal", "result": -0.2}, {"measurement": "glycan array binding signal (z-score)", "setting": "GalNAc(a1-3)GalNAc", "result": 0.307}, {"measurement": "glycan array binding signal (z-score)", "setting": "[5]", "result": -0.339}, {"measurement": "glycan array binding signal (z-score)", "setting": "[6]", "result": 0.365}, {"measurement": "glycan array binding signal (z-score)", "setting": "GalNAc(b1-3)Gal", "result": -0.344}, {"measurement": "glycan array binding signal (z-score)", "setting": "[7]", "result": -0.079}, {"measurement": "glycan array binding signal (z-score)", "setting": "[8]", "result": -0.068}, {"measurement": "glycan array binding signal (z-score)", "setting": "[9]", "result": 0.131}, {"measurement": "glycan array binding signal (z-score)", "setting": "GalNAc(b1-3)GalNAc", "result": -0.112}, {"measurement": "glycan array binding signal (z-score)", "setting": "GalNAc(b1-4)GlcNAc", "result": -0.029}, {"measurement": "glycan array binding signal (z-score)", "setting": "[10]", "result": -0.255}, {"measurement": "glycan array binding signal (z-score)", "setting": "GalNAc(b1-6)GalNAc", "result": -0.102}, {"measurement": "glycan array binding signal (z-score)", "setting": "Glc(a1-4)Glc", "result": 0.122}, {"measurement": "glycan array binding signal (z-score)", "setting": "Glc(a1-6)Glc(a1-6)Glc", "result": 0.472}, {"measurement": "glycan array binding signal (z-score)", "setting": "Glc(b1-4)Glc", "result": -0.166}, {"measurement": "glycan array binding signal (z-score)", "setting": "Glc(b1-6)Glc", "result": -0.007}, {"measurement": "glycan array binding signal (z-score)", "setting": "GlcA(b1-3)Gal", "result": -0.362}, {"measurement": "glycan array binding signal (z-score)", "setting": "GlcA(b1-3)GlcNAc", "result": 2.91}, {"measurement": "glycan array binding signal (z-score)", "setting": "GlcA(b1-6)Gal", "result": -0.164}, {"measurement": "glycan array binding signal (z-score)", "setting": "[11]", "result": -0.148}, {"measurement": "glycan array binding signal (z-score)", "setting": "[12]", "result": -0.223}, {"measurement": "glycan array binding signal (z-score)", "setting": "[13]", "result": -0.278}, {"measurement": "glycan array binding signal (z-score)", "setting": "[14]", "result": -0.171}]}
